In article PMC12820563, “FoxP3 forms a head-to-head dimer in vivo and stabilizes its multimerization on adjacent microsatellites”:
The list shows a part of the results.

Each sequence was assayed against T1, MBP-FoxP1dN (Mus musculus, UniProt P58462 326-579) (assay: PD-seq (MBP pull-down with sequencing); 20 mM Tris-HCl pH 7.5, 100 mM NaCl, 1.5 mM MgCl2, 0.4 uM protein, 0.1 uM dsDNA library, 30 min, room temperature, amylose pull-down; high values mean tight binding). Details: protein: recombinant; tags: His6-MBP; chain copies: 2; dsDNA, one strand shown.
T1 sequence: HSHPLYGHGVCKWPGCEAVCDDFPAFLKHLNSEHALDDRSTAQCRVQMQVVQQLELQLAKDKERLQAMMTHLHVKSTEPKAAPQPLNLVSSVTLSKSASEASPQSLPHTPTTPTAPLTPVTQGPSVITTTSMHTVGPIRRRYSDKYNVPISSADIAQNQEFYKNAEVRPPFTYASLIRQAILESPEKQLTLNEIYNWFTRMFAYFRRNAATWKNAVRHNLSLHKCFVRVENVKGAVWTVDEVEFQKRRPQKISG
Method in brief: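 Binding is reads-per-million enrichment of pull-down over input, with replicates pooled. It comes from 30 min room-temperature incubation in Tris pH 7.5 buffer with NaCl and MgCl2 of 0.4 µM His6-MBP-tagged, N-terminally truncated mouse FoxP3 or FoxP1 fragment from E. coli with 0.1 µM Klenow-filled degenerate double-stranded DNA library, followed by amylose resin capture, three washes and Illumina sequencing of the released DNA.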

In order of rising binding signal:
1. GATGATTGTTCTCCCAGCTGATGAATTCAGCTCTTCGAGTAAACAAATTTTCCTAATCTTTCTGTTCAAGCGCCATCTAC  0.807 RPM ratio (pull-down/input)
2. GATGATTGTTCTCCCAGCTGATGAATTCAGGTCTTCGAGTAAACAAATTTTCCTAATCTTTCTGTTCAAGCGCCATCTAC  0.829 RPM ratio (pull-down/input)
3. GATGATTGTTCTCCCAGCTGATGAATTTGGGGCTTCGAGTAAACAAATTTTCCTAATCTTTCTGTTCAAGCGCCATCTAC  0.839 RPM ratio (pull-down/input)
4. GATGATTGTTCTCCCAGCTGATGAATTAGCCAGTTCGAGTAAACAAATTTTCCTAATCTTTCTGTTCAAGCGCCATCTAC  0.85 RPM ratio (pull-down/input)
5. GATGATTGTTCTCCCAGCTGATGAATTCCGAATGTCGAGTAAACAAATTTTCCTAATCTTTCTGTTCAAGCGCCATCTAC  0.861 RPM ratio (pull-down/input)
6. GATGATTGTTCTCCCAGCTGATGAATTCCTCAAATCGAGTAAACAAATTTTCCTAATCTTTCTGTTCAAGCGCCATCTAC  0.865 RPM ratio (pull-down/input)
7. GATGATTGTTCTCCCAGCTGATGAATTGGAATACTCGAGTAAACAAATTTTCCTAATCTTTCTGTTCAAGCGCCATCTAC  0.876 RPM ratio (pull-down/input)
8. GATGATTGTTCTCCCAGCTGATGAATTCGGGATATCGAGTAAACAAATTTTCCTAATCTTTCTGTTCAAGCGCCATCTAC  0.878 RPM ratio (pull-down/input)
9. GATGATTGTTCTCCCAGCTGATGAATTGTACAGCTCGAGTAAACAAATTTTCCTAATCTTTCTGTTCAAGCGCCATCTAC  0.888 RPM ratio (pull-down/input)
10. GATGATTGTTCTCCCAGCTGATGAATTTTTAGGGTCGAGTAAACAAATTTTCCTAATCTTTCTGTTCAAGCGCCATCTAC  0.898 RPM ratio (pull-down/input)
11. GATGATTGTTCTCCCAGCTGATGAATTCCGATGCTCGAGTAAACAAATTTTCCTAATCTTTCTGTTCAAGCGCCATCTAC  0.96 RPM ratio (pull-down/input)
12. GATGATTGTTCTCCCAGCTGATGAATTGGTACAGTCGAGTAAACAAATTTTCCTAATCTTTCTGTTCAAGCGCCATCTAC  0.973 RPM ratio (pull-down/input)
13. GATGATTGTTCTCCCAGCTGATGAATTTATATTCTCGAGTAAACAAATTTTCCTAATCTTTCTGTTCAAGCGCCATCTAC  1.04 RPM ratio (pull-down/input)
14. GATGATTGTTCTCCCAGCTGATGAATTCAGATGCTCGAGTAAACAAATTTTCCTAATCTTTCTGTTCAAGCGCCATCTAC  1.1 RPM ratio (pull-down/input)
15. GATGATTGTTCTCCCAGCTGATGAATTAATTGCTTCGAGTAAACAAATTTTCCTAATCTTTCTGTTCAAGCGCCATCTAC  1.16 RPM ratio (pull-down/input)
16. GATGATTGTTCTCCCAGCTGATGAATTATTTAGCTCGAGTAAACAAATTTTCCTAATCTTTCTGTTCAAGCGCCATCTAC  1.24 RPM ratio (pull-down/input)
17. GATGATTGTTCTCCCAGCTGATGAATTGACATCTTCGAGTAAACAAATTTTCCTAATCTTTCTGTTCAAGCGCCATCTAC  1.37 RPM ratio (pull-down/input)
18. GATGATTGTTCTCCCAGCTGATGAATTGTAAGCATCGAGTAAACAAATTTTCCTAATCTTTCTGTTCAAGCGCCATCTAC  1.66 RPM ratio (pull-down/input)
